Test results published in article PMC10909981.
These are yes or no findings as the source states them, for the method shown. Binding seen in cells or lysates may run through a third protein. Some results given as binding are weak or reduced against the parent protein; the word gives no strength. Sequences can lack the tags named with a protein. Values belong to the molecule of their own block, whether it stands above or below them.

By UniProt entry, the sequences of proteins in these tests, tags left out.
UniProt Q12834: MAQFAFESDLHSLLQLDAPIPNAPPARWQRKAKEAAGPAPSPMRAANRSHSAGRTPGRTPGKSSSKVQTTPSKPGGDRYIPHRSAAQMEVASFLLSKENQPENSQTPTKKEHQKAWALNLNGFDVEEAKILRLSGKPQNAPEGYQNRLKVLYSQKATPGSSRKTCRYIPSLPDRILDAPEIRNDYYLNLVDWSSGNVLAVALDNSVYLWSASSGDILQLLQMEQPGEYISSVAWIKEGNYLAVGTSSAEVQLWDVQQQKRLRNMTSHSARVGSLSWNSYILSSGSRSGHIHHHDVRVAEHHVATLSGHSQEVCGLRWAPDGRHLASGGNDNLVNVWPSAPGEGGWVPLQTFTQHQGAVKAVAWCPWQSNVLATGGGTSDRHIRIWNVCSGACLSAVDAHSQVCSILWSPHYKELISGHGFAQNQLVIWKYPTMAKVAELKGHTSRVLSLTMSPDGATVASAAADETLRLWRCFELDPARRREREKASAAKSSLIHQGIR
UniProt O60566: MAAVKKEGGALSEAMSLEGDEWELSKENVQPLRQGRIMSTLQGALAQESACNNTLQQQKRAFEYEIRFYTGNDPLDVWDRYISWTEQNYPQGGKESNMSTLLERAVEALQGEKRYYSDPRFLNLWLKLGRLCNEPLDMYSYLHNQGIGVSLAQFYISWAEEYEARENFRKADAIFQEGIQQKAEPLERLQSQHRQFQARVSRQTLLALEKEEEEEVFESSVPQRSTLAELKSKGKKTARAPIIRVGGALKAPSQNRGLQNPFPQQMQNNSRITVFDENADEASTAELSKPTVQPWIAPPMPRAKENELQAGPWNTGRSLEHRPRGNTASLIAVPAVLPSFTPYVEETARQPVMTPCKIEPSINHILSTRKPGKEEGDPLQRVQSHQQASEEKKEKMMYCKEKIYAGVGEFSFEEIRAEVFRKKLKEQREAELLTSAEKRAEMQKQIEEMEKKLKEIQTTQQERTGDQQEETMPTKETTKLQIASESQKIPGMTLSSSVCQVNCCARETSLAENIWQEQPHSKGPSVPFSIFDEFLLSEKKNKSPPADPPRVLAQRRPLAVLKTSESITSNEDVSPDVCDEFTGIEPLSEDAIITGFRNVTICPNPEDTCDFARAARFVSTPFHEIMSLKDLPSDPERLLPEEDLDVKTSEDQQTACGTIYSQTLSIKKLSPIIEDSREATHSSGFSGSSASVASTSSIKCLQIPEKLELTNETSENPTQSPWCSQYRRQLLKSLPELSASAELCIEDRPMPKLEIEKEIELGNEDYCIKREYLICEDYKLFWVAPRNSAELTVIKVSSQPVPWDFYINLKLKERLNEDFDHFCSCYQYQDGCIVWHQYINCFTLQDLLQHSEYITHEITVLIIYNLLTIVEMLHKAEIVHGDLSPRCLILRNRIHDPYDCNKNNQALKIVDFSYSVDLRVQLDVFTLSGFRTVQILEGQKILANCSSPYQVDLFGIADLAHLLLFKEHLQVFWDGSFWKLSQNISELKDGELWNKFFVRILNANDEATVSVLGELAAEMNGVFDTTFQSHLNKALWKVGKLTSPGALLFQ
UniProt Q13257: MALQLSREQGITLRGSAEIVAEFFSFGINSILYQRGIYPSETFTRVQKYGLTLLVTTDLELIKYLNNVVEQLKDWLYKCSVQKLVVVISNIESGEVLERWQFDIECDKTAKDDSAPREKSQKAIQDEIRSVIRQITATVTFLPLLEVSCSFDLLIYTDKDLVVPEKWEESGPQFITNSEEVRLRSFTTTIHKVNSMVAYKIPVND

How the values were obtained:
[1] = molecular target: T1, SETDB2 (SET domain bifurcated histone lysine methyltransferase 2), endogenous (human (endogenous in MCF7, MDA-MB-231, SUM159PT)) (UniProt Q96T68); test: co-IP; endogenous proteins in lysates of MCF7, MDA-MB-231 and SUM159PT cells; antibody with protein A + G-agarose beads overnight at 4 °C; lysis buffer 50 mM Tris-HCl pH 7.4, 200 mM NaCl, 1 mM EDTA, 0.1% Triton X-100, 8% glycerol; western blot
T1 sequence: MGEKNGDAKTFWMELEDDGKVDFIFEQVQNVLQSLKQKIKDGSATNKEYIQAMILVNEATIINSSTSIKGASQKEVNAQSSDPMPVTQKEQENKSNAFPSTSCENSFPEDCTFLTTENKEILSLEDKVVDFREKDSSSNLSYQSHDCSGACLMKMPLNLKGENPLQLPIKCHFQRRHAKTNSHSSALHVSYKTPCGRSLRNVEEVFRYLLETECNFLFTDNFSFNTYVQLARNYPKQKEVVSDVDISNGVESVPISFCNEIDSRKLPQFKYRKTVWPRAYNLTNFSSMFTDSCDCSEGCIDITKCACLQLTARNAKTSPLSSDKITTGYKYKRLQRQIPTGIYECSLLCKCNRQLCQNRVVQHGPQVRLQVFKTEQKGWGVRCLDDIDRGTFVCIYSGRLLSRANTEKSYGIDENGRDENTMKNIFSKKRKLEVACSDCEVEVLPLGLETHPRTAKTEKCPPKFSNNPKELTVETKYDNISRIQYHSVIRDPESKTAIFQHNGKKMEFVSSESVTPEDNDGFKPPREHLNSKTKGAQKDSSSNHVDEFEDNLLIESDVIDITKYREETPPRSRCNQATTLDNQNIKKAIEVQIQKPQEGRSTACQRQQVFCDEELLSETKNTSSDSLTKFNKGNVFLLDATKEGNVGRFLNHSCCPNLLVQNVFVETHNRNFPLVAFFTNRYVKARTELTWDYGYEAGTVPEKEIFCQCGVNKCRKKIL

His-SETDB2 = molecular target: T2, His-SETDB2 (UniProt Q96T68); test: pull-down; His-SETDB2 from E. coli held on His-tag purification resin, incubated with MCF7 cell lysate supernatant overnight at 4 °C; washed with 50 mM Tris-HCl pH 7.4, 150 mM NaCl, 1 mM EDTA, 0.1% Triton X-100, 20 mM imidazole; western blot; only the target purified
T2 sequence: T1 sequence

HA-SETDB2 = molecular target: T3, HA-SETDB2 (UniProt Q96T68); test: co-IP; HA-SETDB2 overexpressed in 293T cells, endogenous BUBR1; cell lysate, beads overnight at 4 °C; western blot
T3 sequence: T1 sequence

GFP-SETDB2-WT = molecular target: T4, GFP-SETDB2-WT (UniProt Q96T68); test: co-IP; GFP-SETDB2-WT or GFP-SETDB2-2GA expressed in 293T cells, endogenous BUBR1; cell lysate; western blot
T4 sequence: T1 sequence

binding [1]: no binding
Molecule: CDC20 (cell division cycle 20), endogenous (from UniProt Q12834 1-499)

binding (His-SETDB2): binds
binding (HA-SETDB2): binds
binding (GFP-SETDB2-WT): binds
binding [1]: binds
Molecule: BUBR1 (BUB1 mitotic checkpoint serine/threonine kinase B), endogenous (from UniProt O60566 1-1050)

binding [1]: no binding
Molecule: MAD2, endogenous (from UniProt Q13257 1-205)

binding [1]: no binding
B1: MPS1, endogenous (protein, UniProt P33981 1-857)
chain: MESEDLSGRELTIDSIMNKVRDIKNKFKNEDLTDELSLNKISADTTDNSGTVNQIMMMANNPEDWLSLLLKLEKNSVPLSDALLNKLIGRYSQAIEALPPDKYGQNESFARIQVRFAELKAIQEPDDARDYFQMARANCKKFAFVHISFAQFELSQGNVKKSKQLLQKAVERGAVPLEMLEIALRNLNLQKKQLLSEEEKKNLSASTVLTAQESFSGSLGHLQNRNNSCDSRGQTTKARFLYGENMPPQDAEIGYRNSLRQTNKTKQSCPFGRVPVNLLNSPDCDVKTDDSVVPCFMKRQTSRSECRDLVVPGSKPSGNDSCELRNLKSVQNSHFKEPLVSDEKSSELIITDSITLKNKTESSLLAKLEETKEYQEPEVPESNQKQWQSKRKSECINQNPAASSNHWQIPELARKVNTEQKHTTFEQPVFSVSKQSPPISTSKWFDPKSICKTPSSNTLDDYMSCFRTPVVKNDFPPACQLSTPYGQPACFQQQQHQILATPLQNLQVLASSSANECISVKGRIYSILKQIGSGGSSKVFQVLNEKKQIYAIKYVNLEEADNQTLDSYRNEIAYLNKLQQHSDKIIRLYDYEITDQYIYMVMECGNIDLNSWLKKKKSIDPWERKSYWKNMLEAVHTIHQHGIVHSDLKPANFLIVDGMLKLIDFGIANQMQPDTTSVVKDSQVGTVNYMPPEAIKDMSSSRENGKSKSKISPKSDVWSLGCILYYMTYGKTPFQQIINQISKLHAIIDPNHEIEFPDIPEKDLQDVLKCCLKRDPKQRISIPELLAHPYVQIQTHPVNQMAKGTTEEMKYVLGQLVGLNSPNSILKAAKTLYEHYSGGESHNSSSSKTFEKKRGKK
